In PMC4336329 (PLoS ONE, 2015):
Hit rate of the full screen: of about 310,000 compounds, about 14,000 (4.5%) showed an effect of 50% or more. The effect is printed as a negative number. The list shows a part of the results.

What follows are molecules tested against human ether-à-go-go-related gene (hERG) potassium channel (human, UniProt Q12809) (assay: primary screen, population patch clamp on CHO cells stably expressing hERG).
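Also: peak tail current of the secondary pulse compared with the same well before compound.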

Sequence of human ether-à-go-go-related gene (hERG) potassium channel (Q12809 whole entry, looked up): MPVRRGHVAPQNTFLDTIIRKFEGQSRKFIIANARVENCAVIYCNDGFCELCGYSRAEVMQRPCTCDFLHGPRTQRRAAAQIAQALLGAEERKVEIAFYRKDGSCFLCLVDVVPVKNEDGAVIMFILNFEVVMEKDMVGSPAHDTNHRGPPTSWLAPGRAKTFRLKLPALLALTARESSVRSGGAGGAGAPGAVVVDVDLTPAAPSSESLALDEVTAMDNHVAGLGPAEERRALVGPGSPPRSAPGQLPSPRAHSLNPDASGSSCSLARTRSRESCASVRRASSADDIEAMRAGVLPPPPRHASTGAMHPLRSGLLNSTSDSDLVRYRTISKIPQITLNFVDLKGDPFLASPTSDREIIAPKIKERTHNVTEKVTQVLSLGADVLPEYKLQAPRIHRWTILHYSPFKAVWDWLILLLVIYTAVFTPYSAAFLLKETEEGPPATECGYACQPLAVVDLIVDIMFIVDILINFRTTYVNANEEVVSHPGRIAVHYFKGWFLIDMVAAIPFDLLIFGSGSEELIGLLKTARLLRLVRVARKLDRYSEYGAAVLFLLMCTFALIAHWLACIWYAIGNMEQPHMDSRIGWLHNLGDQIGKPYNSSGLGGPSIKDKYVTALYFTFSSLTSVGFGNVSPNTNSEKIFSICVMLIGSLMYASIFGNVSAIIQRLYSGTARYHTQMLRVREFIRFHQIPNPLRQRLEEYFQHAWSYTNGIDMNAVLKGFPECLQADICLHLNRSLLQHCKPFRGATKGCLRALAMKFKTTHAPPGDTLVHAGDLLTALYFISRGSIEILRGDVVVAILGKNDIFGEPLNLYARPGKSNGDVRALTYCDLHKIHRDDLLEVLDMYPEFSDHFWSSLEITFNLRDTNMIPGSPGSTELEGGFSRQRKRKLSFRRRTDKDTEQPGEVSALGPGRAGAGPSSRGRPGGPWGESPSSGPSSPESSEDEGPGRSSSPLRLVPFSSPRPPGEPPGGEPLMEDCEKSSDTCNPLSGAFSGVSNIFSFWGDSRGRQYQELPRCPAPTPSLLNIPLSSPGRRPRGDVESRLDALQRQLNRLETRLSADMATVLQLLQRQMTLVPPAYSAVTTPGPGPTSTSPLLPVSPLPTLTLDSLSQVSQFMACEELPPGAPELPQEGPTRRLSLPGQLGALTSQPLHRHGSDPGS

| Compound | hERG current change (%, negative = inhibition) at 10uM |
| --- | --- |
| CC(C)CCC(C)N=Cc1c(O)n(Cc2ccccc2)c(=O)c2ccccc12 (stereo not shown) | 18.3% |
| Cc1ccccc1CNC(=O)CCCC(=O)n1nc(C)c2ccccc21 | -5.83% |
| CCOC(=O)NC(=O)/C(C#N)=C\NNc1ncc(C(F)(F)F)cc1Cl | -8.73% |
| CCN1CCN(c2ncnc3c2cnn3-c2ccccc2)CC1 | -14.1% |
| CCN(Cc1ccccc1)c1ccc(/C=N/NS(=O)(=O)c2ccc(C)c([N+](=O)[O-])c2)cc1 | 7.77% |
| CCN(C(=O)COC(=O)/C=C/c1ccc(S(=O)(=O)N2CCc3ccccc32)cc1)C1CCS(=O)(=O)C1 (stereo not shown) | -19.4% |
| CO/N=C(\C(=O)O)c1csc(NN=C(C)C)n1 | 16.2% |
| O=C(N/N=C/c1cn(Cc2cccc(F)c2)c2ccccc12)c1cc(O)cc(O)c1 | -0.861% |
| COc1ccc(CN2C(=O)NC(=O)/C(=C/c3ccc(OC)c(OC)c3OC)C2=O)cc1 | 6.05% |
| COc1ncnc2sc3c(c12)CCCC3 | -16.3% |
| CC(=O)Nc1ccc(NC(=O)c2nccnc2C(=O)O)cn1 | 14.3% |
| CC(C)C(=O)Nc1c2c(nn1-c1ccc(F)cc1)CSC2 | 8.67% |
| Cc1ccccc1Nc1cc(C(=O)NCC2CCCO2)c2ccccc2n1 (stereo not shown) | -15.6% |
| Cc1ccc2cccnc2c1N | 4.5% |
| O=C(NC(Nc1ccc(F)cc1)(C(F)(F)F)C(F)(F)F)c1cccnc1 | 10.3% |
| CC1CN/C(=C\C(=O)c2ccccc2)C(=O)N1 (stereo not shown) | 11.9% |
| COCCNC(=O)C1CC(=O)N(C2CCCC2)C1 (stereo not shown) | 10.2% |
| CCOc1cc(C(=S)N2CCOCC2)ccc1OS(=O)(=O)c1ccc(OC)cc1 | -1.39% |
| Cc1ccccc1OCCCN1CCCC1 | -14.4% |
| COc1ccc(N(Cc2cc3cc(OC)ccc3[nH]c2=O)S(=O)(=O)c2ccc(NC(C)=O)cc2)cc1 | 5.64% |
| COc1ccc(C(=O)NCCc2c[nH]c3ccccc23)cc1 | 10.8% |
| CN1[C@@H]2CCC[C@H]1CC(NC(=O)c1nn(C)c3ccccc13)C2.Cl (stereo partly shown) | -7.55% |

| Compound | hERG current change (%, negative = inhibition) at 10uM |
| --- | --- |
| COC(=O)c1cn(NC(=O)c2cc(OC)cc(OC)c2)c(=O)c2ccccc12 | 15.4% |
| COc1ccc(C(=O)Oc2cccc(/C=N/NC(N)=S)c2)cc1 | 11.7% |
| COc1ccc2cc3c(N)nn(C(=O)c4ccc(Cl)c([N+](=O)[O-])c4)c3nc2c1 | 2.95% |
| CCC(Oc1ccccc1OC)C(=O)N1CC(=O)Nc2ccccc21 (stereo not shown) | 2.79% |
| O=C(O)c1ccccc1SC1CC(=O)N(C2CCCCC2)C1=O (stereo not shown) | -0.781% |
| CCOC(=O)CSc1ccc(C(=O)Nc2ccc(Cl)cc2)cn1 | 21.8% |
| Cc1ccccc1-n1c(SCc2c(C)noc2C)nnc1-c1ccncc1 | -8.85% |
| COc1cc(/C=N/n2nnnc2N)ccc1OCC#N | 16.1% |
| O=C(CSc1nnc(CNC(=O)c2cccs2)o1)Nc1ccc(Cl)cc1 | -4.26% |
| CCOCC(=O)Nc1ccccc1C(=O)O | 24% |
| Cc1ccc(C2CC(=O)NC(SCc3ccccc3)=C2C#N)cc1 (stereo not shown) | -8.3% |
| O=C(Nc1cccc(Cl)c1N1CCCCC1)c1ccc2c(c1)OCCO2 | 14.2% |
| O=C(COc1ccc2c(-c3ccccc3)cc(=O)oc2c1)Nc1ccc(CCO)cc1 | 9.04% |
| CC(=O)C(Sc1nn(C)c(=S)s1)C(=O)Nc1ccccc1 (stereo not shown) | 3.73% |
| COc1ccc(-c2onc3ccc(C(C)=O)cc23)cc1 | -8.83% |
| CC(=O)c1cnc2nc(C(F)(F)F)nn2c1C | 2.3% |
| COc1ccc(C(C)C)cc1S(=O)(=O)N1CCC(C(=O)NCC2CCCO2)CC1 (stereo not shown) | 1.83% |
| COCC(=O)Nc1ccc2c(c1)OCC(=O)N2Cc1ccc(C)cc1 | -10.2% |
| CC(=O)Nc1cccc(CCc2nc3ccccc3[nH]2)c1 | -0.457% |
| CCC(C)C(NC(=O)/C(=C\c1ccccc1)NC(=O)c1ccc(OC)cc1)C(=O)O (stereo not shown) | 20% |
| O=c1c2ccc([N+](=O)[O-])cc2ncn1CCOc1cccc(Br)c1 | 13.1% |
| Cc1ccccc1-n1c(SCC(=O)c2c(N)n(C)c(=O)n(C)c2=O)nnc1-c1cccnc1 | -15.5% |

| Compound | hERG current change (%, negative = inhibition) at 10uM |
| --- | --- |
| O=C(Nc1ccon1)c1cccc(S(=O)(=O)N2CCCC2)c1 | -0.984% |
| Cc1cc(N2CC(=O)N(CCc3ccccc3)C(=O)C2)n2ncnc2n1 | -15.3% |
| CN(Cc1cnn(C)c1)Cc1nc(C(c2ccccc2)c2ccccc2)no1 | -1.79% |
| O=C(CCS(=O)(=O)c1ccc(Br)cc1)NC1CCCC1 | 11.6% |
| Cc1ccc(-c2nn3c(C)nnc3s2)cc1NC(=O)COc1ccc(Cl)cc1 | -70.6% |
| Cc1nnc(SCCC(=O)Nc2ccccc2Cl)o1 | 0.409% |
| COCCNC(=O)[C@@H]1CCCN1S(=O)(=O)c1cccc2cccnc12 | -1.9% |
| O=C(NCCC(=O)N1CCN(c2ccccc2F)CC1)c1ccco1 | 8.93% |
| COc1ccc(OC)c(-n2c(=S)[nH]c3cc(C(=O)N4CCN(c5ccccc5)CC4)ccc3c2=O)c1 | 10.8% |
| CC(C)(C)Nc1c(-c2ccc(O)cc2)nc2ccc(Cl)cn12 | 4.73% |
| COC(=O)C1(CC2CC(c3ccncc3)=NO2)CCN(C(=O)OC(C)(C)C)CC1 (stereo not shown) | -20.7% |
| COc1ccc(N(C(=O)c2ccco2)C(C(=O)NC2CCCC2)c2ccc(OC)c(OC)c2)cc1 (stereo not shown) | -3.3% |
| COc1cc(NC(=S)N2CCCC(CO)C2)cc(OC)c1 (stereo not shown) | 40.4% |
| CC(=O)Oc1ccc(OC(C)=O)c2c1CC(C)=C(C)C2 | 13.2% |
| N#CC1(C#N)C(C(N)=O)C1c1ccccc1 (stereo not shown) | 23.7% |
| COc1ccc(CC(=O)OCC(=O)NC(=O)NC2CCCC2)cc1 | 1.78% |
| O=C(NCCS(=O)(=O)N1CCN(c2ccccc2F)CC1)c1ccc(Br)o1 | -6.39% |
| COCC1CCCCN1C(=O)c1ccc(OC2CCN(CCc3ccccc3)CC2)cc1 (stereo not shown) | -37.1% |
| Cc1ccccc1NC(=O)CSc1nnc(CNC(=O)c2ccco2)n1C | -3.35% |
| O=C1Nc2ccc(S(=O)(=O)N3CCCC3)c3ccc(S(=O)(=O)N4CCCC4)c1c23 | -9.54% |
| COC(=O)c1ccc(Nc2nc(-c3ccncc3)nc3ccccc23)cc1 | 28.7% |
| CCN(CC(=O)Nc1ccccc1C(F)(F)F)C(=O)C1=COCCO1 | 22.6% |

| Compound | hERG current change (%, negative = inhibition) at 10uM |
| --- | --- |
| O=C(Cn1cnc2ccccc21)OCC(=O)N1CCCc2ccccc21 | 8.8% |
| Cl.O=C(Nc1cc(F)cc(F)c1)c1ccc(NCCCN2CCCCCC2)c([N+](=O)[O-])c1 | -72.1% |
| CCN1CCN(S(=O)(=O)c2ccc(Cl)c(C(=O)N(CC)CC(=O)Nc3ccc(OC)cc3)c2)CC1 | 2.15% |
| Cc1ccc(C(OCC(O)CNC(C)c2ccccc2)c2ccccc2)cc1 (stereo not shown) | -58.2% |
| CCCCNC(=O)c1cn(CC)c2ccc(S(=O)(=O)N3CCCC3)cc2c1=O | -38.1% |
| C#Cc1ccc([C@@H]2C=C(C(=O)NC3CC3)O[C@H](OCCCCO)C2)cc1 | -2.78% |
| c1ccc(Nc2c(-c3ccco3)nc3ccccn23)cc1 | 9.75% |
| Cc1cc(NC(=O)CCC(=O)N(CC(=O)NC2CCCC2)Cc2ccccc2Cl)no1 | -2.01% |
| COc1cc(CCC(=O)OCn2nnc3ccccc3c2=O)cc(OC)c1OC | 13.3% |
| O=C1c2cccc3cccc(c23)C(=O)N1c1ccc(O)cc1 | 6.51% |
| CC(C)CN(C(=O)COC(=O)COc1ccc2c(c1)CCC2)c1c(N)n(Cc2ccccc2)c(=O)[nH]c1=O | -0.239% |
| Cc1ccc(S(=O)(=O)n2cnc3ccccc32)c(C)c1 | -4.8% |
| CC(=O)c1c(C)[nH]c(C(=O)Nc2nccs2)c1C | -4.05% |
| Cc1cccc(NC(=O)CCCc2ccccc2)c1C | 6.64% |
| O=c1[nH]c(Cc2ccccn2)nc2scc(-c3ccc(Cl)cc3)c12 | -3.78% |
| Cc1nn(-c2ccccc2)c2c1CC1(C(=O)N(C)C(=O)N(C)C1=O)C1CCCCN21 (stereo not shown) | 18.8% |
| Cc1c(C#N)c(SCC(N)=O)nc2c1CCCC2 | -3.9% |
| CCS(=O)(=O)N1CCN(CC2CC3C=CC2C3)CC1 (stereo not shown) | 19.1% |
| O=C(CSc1nnc(NC(=O)C2CC(=O)N(c3ccccc3)C2)s1)NC1CCCC1 (stereo not shown) | 9.31% |
| COc1ccc(C(=O)N2CCN(C(=O)c3ccc(-c4ccccc4)cc3)CC2)cc1OC | -43.6% |
| C=C(C)C(=O)Nc1cccc(C2=NOC3(C2)C[C@H](C(N)=O)N(C(=O)/C=C/C)C3)c1 (stereo partly shown) | 3.83% |
| NS(=O)(=O)c1ccc(CCNC(=O)CNC(=O)C2CCCCC2)cc1 | 7.84% |
